Source: PubChem BioAssay AID488969 (Vanderbilt High Throughput Screening Facility, 2010)
Over roughly 110,000 compounds, “z-score” has its median near -0.1; the highest 2% begin near 2. The list shows a part of the results.

biological target: Metabotropic glutamate receptor 8 (Rattus norvegicus) (UniProt P70579); test: mGluR8 Gi/Go-coupled signaling modulation – cell-based, rat, thallium flux, HTS, primary screen (AID 488969); settings: HEK293 rat mGluR8, GIRK (G protein-gated inwardly rectifying potassium channel) thallium flux, FluoZin2; at 10 µM; stronger effect = higher value; submaximal glutamate (EC20) added with thallium
Sequence of UniProt P70579 (P70579 whole entry, looked up): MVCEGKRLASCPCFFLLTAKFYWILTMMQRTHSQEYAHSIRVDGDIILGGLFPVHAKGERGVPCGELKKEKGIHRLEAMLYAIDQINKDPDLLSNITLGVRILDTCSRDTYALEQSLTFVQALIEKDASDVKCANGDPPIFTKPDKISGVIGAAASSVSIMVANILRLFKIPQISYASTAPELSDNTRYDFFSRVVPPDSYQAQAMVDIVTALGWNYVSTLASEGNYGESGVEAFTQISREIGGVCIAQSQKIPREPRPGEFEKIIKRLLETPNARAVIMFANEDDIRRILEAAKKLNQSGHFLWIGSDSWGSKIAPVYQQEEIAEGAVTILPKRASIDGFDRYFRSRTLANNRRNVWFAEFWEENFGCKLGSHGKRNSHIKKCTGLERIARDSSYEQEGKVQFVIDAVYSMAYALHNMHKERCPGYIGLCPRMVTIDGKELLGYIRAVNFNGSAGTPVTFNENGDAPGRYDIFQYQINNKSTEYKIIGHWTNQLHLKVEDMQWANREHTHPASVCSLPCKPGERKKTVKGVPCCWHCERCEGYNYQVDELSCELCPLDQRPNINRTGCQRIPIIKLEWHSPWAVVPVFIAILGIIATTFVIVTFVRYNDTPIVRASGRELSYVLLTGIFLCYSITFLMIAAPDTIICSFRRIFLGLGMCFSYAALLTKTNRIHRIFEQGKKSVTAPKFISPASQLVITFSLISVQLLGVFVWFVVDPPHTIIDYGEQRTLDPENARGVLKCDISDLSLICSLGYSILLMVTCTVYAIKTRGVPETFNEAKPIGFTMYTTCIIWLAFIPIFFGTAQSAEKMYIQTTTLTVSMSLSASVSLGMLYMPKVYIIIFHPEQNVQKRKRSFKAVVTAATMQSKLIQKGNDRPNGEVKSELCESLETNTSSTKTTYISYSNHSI

Compound | z-score
O=C(c1ccccc1)c1ccc(OCCCN2CCCCC2)cc1 | 1.54
CCCCC1CCC(C(=O)Nc2ccc(S(=O)(=O)Nc3nccs3)cc2)CC1 (stereo unspecified) | -0.647
O=C1Nc2ccc(F)cc2C12SCCS2 | -0.13
C=CCc1cccc2cc(C(=O)O)c(=O)oc12 | -0.279
Cc1cccc(Nc2nc(N3CCCCC3)nc(N3CCCCC3)n2)c1 | -0.356
COc1ccc(Br)cc1CNC(=O)C1CCN(S(=O)(=O)N2CCCCC2)CC1 | -0.52
O=C(Nc1ccc(Cl)cc1)OCCn1nnnc1C(c1ccccc1Cl)N1CCOCC1 (stereo unspecified) | 0.209
COc1cc(C2NC(=O)NC(C)=C2C(=O)Nc2cccc(C)c2C)cc(OC)c1OC (stereo unspecified) | 0.0404
Cc1cccc(N2CCN(C(=O)CCCSc3nc4ccccc4[nH]3)CC2)c1C | -0.505
C/C(=N/NC(=O)c1cc(-c2cccc([N+](=O)[O-])c2)n[nH]1)c1ccc(Cl)cc1 | 0.0704
Oc1ccc2ccccc2c1/C=N/Nc1ccccc1 | -0.0331
CCc1cccc(OCCCN2C(=O)NC(C)(C)C2=O)c1 | 0.00102
O=C(COC(=O)c1cnccn1)c1ccc2ccccc2c1 | 0.118
O=C(Cn1c(=O)c2c(ncn2Cc2ccccc2)n(Cc2ccccc2)c1=O)N1CCCC1 | -0.391
O=C(N1CCOCC1)C(F)(F)C(=O)N1CCOCC1 | -1.14
CC1(C)C(=O)Nc2ccccc2N1C(=O)COc1ncnc2c(Cl)cc(Cl)cc12 | -0.821

Compound | z-score
CCOC(=O)C1CCN(C(=O)C2CCCCC2)CC1 | 0.44
C=CCn1c(Cc2ccc(OC(C)C)c(Cl)c2)nnc1SCC(N)=O | -0.113
CC(=O)Nc1cccc(C(=O)N/N=C/c2ccccc2F)c1 | -0.261
COc1ccnc(Nc2ccc(C)c(C)c2)c1C#N | -0.198
COc1ccc(CC(=O)Nc2cc(S(=O)(=O)N3CCCCC3)ccc2N2CCN(C)CC2)cc1 | 0.455
CCOC(=O)/C(C(N)=NC)=C(\O)c1ccccc1 | -0.332
CCNC(=S)NNC(=O)c1c(Cl)c(C)nn1C | -0.0875
CN1CCN(C(=S)c2ccc(Cl)cc2)CC1 | -0.452
Cc1cccc(NC(=O)[C@H](Cc2ccccc2)NC(=O)OCc2ccccc2)c1 | -0.199
CCCOc1c(Cl)cc(C(=O)Nc2ccc3c(c2)OCO3)cc1OCC | -0.217
COc1ccc(OC)c(-c2cc(C(=O)NCCCn3ccnc3)no2)c1 | -0.513
O=C(CSc1nc2ncccc2[nH]1)c1cccc([N+](=O)[O-])c1 | -0.325
CCn1c(SCC(=O)Nc2cccc(F)c2)nc2c(c1=O)SC(C)C2 (stereo unspecified) | -0.986
CC(=O)NS(=O)(=O)c1cccnc1Nc1ccc(Cl)cc1 | -0.763
CC(C)CNS(=O)(=O)c1ccc(OCC(=O)Nc2ccc(F)cc2F)cc1 | 0.378
